# Experimental data taken from article PMC4336329 (PLoS ONE, 2015).
# The whole screen tested about 310,000 compounds, of which about 14,000 (4.5%) showed an effect of 50% or more. The effect is printed as a negative number. The list shows a part of the results.
# Target: human ether-à-go-go-related gene (hERG) potassium channel (human, UniProt Q12809)
# Assay: primary screen, population patch clamp on CHO cells stably expressing hERG
# 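Also: peak tail current of the secondary pulse compared with the same well before compound.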
# Chain of human ether-à-go-go-related gene (hERG) potassium channel (Q12809 whole entry, looked up): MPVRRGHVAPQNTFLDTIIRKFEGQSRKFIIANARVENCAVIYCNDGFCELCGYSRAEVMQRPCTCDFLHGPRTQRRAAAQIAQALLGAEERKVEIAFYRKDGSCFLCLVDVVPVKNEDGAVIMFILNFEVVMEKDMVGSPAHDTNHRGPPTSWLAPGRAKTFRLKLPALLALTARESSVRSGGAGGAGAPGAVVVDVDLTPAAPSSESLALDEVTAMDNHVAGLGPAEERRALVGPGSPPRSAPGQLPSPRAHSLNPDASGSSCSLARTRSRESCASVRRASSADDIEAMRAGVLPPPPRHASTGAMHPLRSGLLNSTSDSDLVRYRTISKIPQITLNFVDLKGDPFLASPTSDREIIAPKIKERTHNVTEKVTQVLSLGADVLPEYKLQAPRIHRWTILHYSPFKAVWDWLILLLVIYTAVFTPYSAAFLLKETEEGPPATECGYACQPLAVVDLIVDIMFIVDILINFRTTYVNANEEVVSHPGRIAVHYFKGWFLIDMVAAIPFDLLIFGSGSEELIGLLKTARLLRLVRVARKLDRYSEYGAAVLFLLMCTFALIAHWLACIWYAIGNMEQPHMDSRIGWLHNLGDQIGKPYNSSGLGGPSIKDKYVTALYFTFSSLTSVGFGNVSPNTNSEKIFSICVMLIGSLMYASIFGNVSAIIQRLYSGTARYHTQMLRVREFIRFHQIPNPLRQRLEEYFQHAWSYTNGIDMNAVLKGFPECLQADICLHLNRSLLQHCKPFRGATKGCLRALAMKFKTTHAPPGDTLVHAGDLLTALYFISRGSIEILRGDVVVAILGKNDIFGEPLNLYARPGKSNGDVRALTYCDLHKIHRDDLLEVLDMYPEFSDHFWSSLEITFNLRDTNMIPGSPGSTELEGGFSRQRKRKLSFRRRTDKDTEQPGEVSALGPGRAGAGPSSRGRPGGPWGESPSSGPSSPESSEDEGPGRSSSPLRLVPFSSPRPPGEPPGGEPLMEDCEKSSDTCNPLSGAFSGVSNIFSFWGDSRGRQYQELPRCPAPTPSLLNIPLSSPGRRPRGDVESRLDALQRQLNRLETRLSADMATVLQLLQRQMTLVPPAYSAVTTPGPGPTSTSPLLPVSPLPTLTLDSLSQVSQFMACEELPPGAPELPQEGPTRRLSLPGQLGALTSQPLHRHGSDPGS
row,SMILES,"hERG current change (%, negative = inhibition) at 10uM"
1,COc1ccccc1C(=O)NC(CCSC)C(=O)OCC(=O)c1ccc[nH]1 (stereo not shown),-28.9%
2,COc1cccc(N2CCN(CC(=O)Nc3ccccc3C(=O)NCc3ccccc3)CC2)c1,-60.9%
3,COc1ccc(NC(=O)C2=C(C)Nc3ncnn3C2c2ccccc2C(F)(F)F)c(OC)c1 (stereo not shown),2.77%
4,Cl.O=C(OCCN1CCOCC1)c1ccc(Cl)cc1Cl,-0.913%
5,O=C(NCCS(=O)(=O)N1CCN(c2ccccc2F)CC1)c1ccco1,-16.5%
6,Cn1nnnc1SCC(=O)c1c(N)n(C)c(=O)n(C)c1=O,18.3%
7,Clc1ccc(-n2ncc3c(NCc4cccnc4)ncnc32)cc1Cl,14.6%
8,COc1cccc(C2C3=C(CCCC3=O)NC3=C2C(=O)c2ccccc23)c1 (stereo not shown),3.81%
9,CCOC(=O)c1[nH]c2ccc(F)cc2c1NC(=O)CN1CCc2cc(OC)c(OC)cc2C1,-0.0862%
10,O=C(c1cccc(Cl)c1)N1CCCC(C(=O)N2CCN(c3ccccc3)CC2)C1 (stereo not shown),-49.6%
11,C=CCSc1nc2ccccc2n1Cc1nnc(-c2cccs2)o1,-48.5%
12,CCC(C)[C@H](NC(=O)NCc1ccc(Cl)cc1)C(=O)O (stereo partly shown),-26.8%
13,O=C(NCc1ccccc1)C(c1ccncc1)N(C(=O)c1csnn1)C1CC1 (stereo not shown),1.3%
14,CN(CC(=O)Nc1ccc(F)c(F)c1F)C(=O)C1CCN(C(=O)Nc2ccccc2)CC1,-19.6%
15,COc1cc(OC)c2ccc(=O)oc2c1C(CCN1CCCC(C)C1)c1ccc(N(C)C)cc1 (stereo not shown),-10.6%
16,O=C(Oc1ccc(-c2nnco2)cc1)c1ccc(Br)o1,18.3%
17,O=C(CCN1C(=O)/C(=C\c2ccccc2Cl)SC1=S)Nc1cccnc1,15.1%
18,Nc1ncc(Br)cc1S(=O)(=O)NCCC(=O)NCc1ccc(F)cc1,-20.6%
19,COc1ccc(C)cc1NC(=O)c1nn(C)cc1Br,6.17%
20,Cc1cccc(CN2C(=O)c3ccccc3Sc3ccc(C(=O)O)cc32)c1,24.1%
21,O=S(=O)(Nc1cc(C(F)(F)F)ccc1N1CCOCC1)c1ccccc1,4.09%
22,COC(=O)NC1(C(F)(F)F)NC(=O)N(C2CCCCC2)C1=O (stereo not shown),3.7%
23,C/C(=N\n1c(C)nc2ccccc2c1=O)c1ccc(N)cc1,17.1%
24,CCOc1ccc(NC(=O)Cn2nnc(C(=O)NCc3ccc(OC)cc3)c2N)cc1,6.1%
25,O=C(NCCS(=O)(=O)N1CCc2ccccc2C1)c1ccccc1,-23%
26,CC(C)(C)OC(=O)CNC(=O)c1[nH]cnc1C(=O)N[C@@H](Cc1ccccc1)C(=O)OC(C)(C)C,-0.913%
27,CC(C)(C)C1=C(C#N)C(c2cccnc2)C(C#N)=C(N)O1 (stereo not shown),4.42%
28,S=C(Nc1ccc(Oc2ccccc2)cc1)N(CCCN1CCOCC1)Cc1ccccn1,-70%

row,SMILES,"hERG current change (%, negative = inhibition) at 10uM"
1,C=CCn1c(COc2ccc(OC)cc2)nnc1SC(C)C(=O)NC1CC1 (stereo not shown),-11.6%
2,CCOc1cc(/C=N/N=C/c2ccc(O)c(OCC)c2)ccc1O,9.33%
3,O=c1c(N2CCOCC2)nsnc1N1CCOCC1,1.94%
4,CNC(=O)CCCc1nc(-c2ccccc2Cl)no1,21.1%
5,CC1Oc2ccccc2OC1C(=O)Nc1ccccn1 (stereo not shown),6.71%
6,O=C(CSc1nnc(NC(=O)Cc2ccccc2)s1)NCc1ccco1,5.42%
7,CN(C)CC(C)(C)CNC(=S)NCc1ccc2c(c1)OCO2,-2.88%
8,O=C(O)c1cccc(S(=O)(=O)Nc2ccc(OCc3ccccc3)cc2)c1,23.6%
9,COc1cc2[nH]c(=O)n(CCCCCC(=O)N3CCN(c4ccccc4)CC3)c(=O)c2cc1OC,-18.6%
10,CCOC(=O)N1CCC(NS(=O)(=O)c2ccc3c(c2)C(C)(C)C(=O)N3C)CC1,11.3%
11,COCC(C)(C)COS(N)(=O)=O,3.52%
12,C=Cc1ccc2c(c1)N(C)C(=C)S2.I,19.7%
13,O=C(Cn1cc([N+](=O)[O-])cn1)Nc1ccc(Cn2cc(Br)cn2)cc1,-36.9%
14,C=C(C)c1cccc(C(C)(C)NC(=O)N2CCOCC2)c1,-1.87%
15,O=C(N/N=C/c1ccccn1)c1ccc(NC(=O)c2cccc([N+](=O)[O-])c2)cc1,11.8%
16,COc1ccccc1N1CCN(C(=O)c2ccc(NC3=NC4CS(=O)(=O)CC4S3)cc2)CC1 (stereo not shown),1.39%
17,COCCCn1c(=O)c2sccc2n2c(CCCC(=O)N(C)Cc3ccco3)nnc12,-22.8%
18,COc1cc(-c2nc(-c3ccccc3)c(-c3cccs3)[nH]2)cc(OC)c1O,-7.38%
19,CS(=O)(=O)O.Cc1c(C(=O)c2cccc3ccccc23)c2cccc3c2n1[C@H](CN1CCOCC1)CO3,-12.8%
20,CC(C)c1ccc(NC(=O)c2ccccc2NC(=O)C2CCCCC2C(=O)O)cc1 (stereo not shown),11.5%
21,Cc1ccc(-c2cc(C(=O)Nc3ccc(S(=O)(=O)Nc4onc(C)c4C)cc3)[nH]n2)c(O)c1,-5.74%
22,COc1ccc(S(=O)(=O)N/N=C\c2ccc([N+](=O)[O-])o2)c(OC)c1,9.89%
23,CCC(=O)Nc1ccc(NC(=O)CSc2nnc(-c3ccco3)n2C)cc1,10.6%
24,Cc1nc(NC(=O)C2CC2)sc1C(=O)NC1CCCCC1,16.8%
25,NC(=O)C1C(c2ccccc2)=C1c1ccccc1,21.6%
26,Cc1ccc(-c2nc(NCc3ccco3)n(S(C)(=O)=O)n2)cc1,12.9%
27,CCc1cccc2c(C(=O)CN3C(=O)NC4(CCCCCC4)C3=O)c[nH]c12,1.99%
